Laboratory results published in paper PMC6919601, “Identification of Plasmodium dipeptidyl aminopeptidase allosteric inhibitors by high throughput screening” (PLoS ONE, 2019).
About 230 (0.21%) of roughly 110,000 compounds showed an effect of 50% or more. The list shows a part of the results.

Target: DPAP1 (Plasmodium falciparum, UniProt Q8IIJ9)
Assay: primary screen, percent inhibition; read by cleavage of a fluorogenic dipeptide substrate; higher = more effect of the substance
Design: species or system P. falciparum D10 trophozoite lysates; single well
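Further: 30 min substrate incubation versus DMSO and 10 µM JCP410 controls.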

Chain of DPAP1 (Q8IIJ9 whole entry, looked up): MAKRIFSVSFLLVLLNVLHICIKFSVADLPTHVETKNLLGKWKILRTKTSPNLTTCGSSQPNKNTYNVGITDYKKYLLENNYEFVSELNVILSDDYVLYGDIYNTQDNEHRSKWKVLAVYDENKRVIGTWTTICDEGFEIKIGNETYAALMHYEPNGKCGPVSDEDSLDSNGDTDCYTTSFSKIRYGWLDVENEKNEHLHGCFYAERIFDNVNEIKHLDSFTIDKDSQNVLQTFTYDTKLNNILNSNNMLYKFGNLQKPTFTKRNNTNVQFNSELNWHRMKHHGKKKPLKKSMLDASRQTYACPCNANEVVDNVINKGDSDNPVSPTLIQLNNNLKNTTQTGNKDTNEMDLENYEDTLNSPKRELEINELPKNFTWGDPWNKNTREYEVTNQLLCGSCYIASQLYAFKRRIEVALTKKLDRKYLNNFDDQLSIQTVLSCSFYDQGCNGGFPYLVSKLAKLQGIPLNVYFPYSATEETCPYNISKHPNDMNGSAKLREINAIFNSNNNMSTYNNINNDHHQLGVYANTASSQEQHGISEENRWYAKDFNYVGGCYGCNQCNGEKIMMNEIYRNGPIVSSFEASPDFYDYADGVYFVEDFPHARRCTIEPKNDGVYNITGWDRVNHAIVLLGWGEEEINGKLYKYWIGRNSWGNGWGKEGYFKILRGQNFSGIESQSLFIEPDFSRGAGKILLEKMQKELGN

Row | SMILES | % Inhibition @ 10 uM
1 | O=C(C1CC(c2ccc(F)cc2)=NO1)N1CCC2(CC1)OCCO2 (stereo not shown) | -3.94%
2 | Cc1oc2cc3oc(=O)c(CC(=O)N4CCOCC4)c(C)c3cc2c1C | 4.13%
3 | CC(C)C[C@H](NC(=O)OC1c2ccccc2-c2ccccc21)C(=O)NCC#N | -4.72%
4 | CCOC(=O)c1c(C)[nH]c(C)c1S(=O)(=O)N1CCC(C(=O)NCc2ccc3c(c2)OCO3)CC1 | -4.55%
5 | COc1ccccc1-c1nnc(C2CCN(C(=O)c3ccco3)CC2)o1 | -6.92%
6 | Cc1ccc(S(=O)(=O)N(CC(=O)Nc2ccccc2C(=O)O)c2ccccc2)cc1 | -5.13%
7 | COc1ccccc1OCC(=O)Nc1ccc(S(N)(=O)=O)cc1 | -0.884%
8 | Cn1ncc2c(NCc3ccco3)ncnc21 | 5.84%
9 | c1cncc(C2OCC(CN3CCCCC3)O2)c1 (stereo not shown) | -0.415%
10 | COCCN1C(=O)/C(=C\c2cc(C)n(-c3ccc(Cl)c(Cl)c3)c2C)C(C(=O)OC)=C1C | 12.3%
11 | CC1=C(c2ccc(Cl)cc2)S(=O)(=O)N=C1N1CCC(C(=O)NCCc2cccs2)CC1 | 1.63%
12 | Cc1ccc(-c2noc(CCCC(=O)NC(C)C)n2)cc1 | 2.21%
13 | CC1(C)[C@H]2CC=C(CN3CCN(C/C=C/c4ccccc4)CC3)[C@@H]1C2 | 1.74%
14 | COc1ccc(OCC(=O)Nc2ccc(S(=O)(=O)N3CCCCCC3)cc2)cc1 | -9.24%
15 | COc1ccc(N2CCN(S(=O)(=O)c3ccc(F)c(Cl)c3)CC2)cc1 | -4.86%
16 | Cn1c(-c2ccccc2)cnc1NCc1cccc(O)c1 | -1.11%
17 | CC(C)CN1C(=O)C2C3CC4C5(C)CCCC(C)(C(=O)O)C5CCC4(C=C3C(C)C)C2C1=O (stereo not shown) | 7.63%
18 | Cc1ccc(NC(=O)c2ccn(C)n2)cc1S(=O)(=O)N1CCOCC1 | -15.9%
19 | Cn1c(=O)c2c(ncn2Cc2ccccc2F)n(C)c1=O | -2.3%
20 | Cn1cc(CNC(=O)c2sc3cc(Cl)ccc3c2Cl)cn1 | -0.522%
21 | Brc1ccccc1CN1CCN(c2ncccn2)CC1 | -1.04%

Row | SMILES | % Inhibition @ 10 uM
22 | COc1ccc(C=O)cc1Cn1c(=O)n(CCC(=O)NCc2ccco2)c(=O)c2sccc21 | -3.77%
23 | O=[N+]([O-])c1ccc(N2CCN(C3CCC(c4ccccc4)CC3)CC2)cc1 (stereo not shown) | 3.19%
24 | Cc1cccc(NC(=O)CCc2nnc3ccc(N4CCC(C)CC4)nn23)n1 | -4.93%
25 | CCCc1cc(N2CCOCC2)n2c(nc3ccccc32)c1C#N | -0.85%
26 | COc1ccc(C(=O)NC(C)c2cc3c(cc2Cl)OCCCO3)cc1 (stereo not shown) | -1.28%
27 | CC1CCN(Cc2ccc(-c3nn[nH]n3)cc2)CC1 | -0.551%
28 | COc1ccc(NC(=O)c2ccc([N+](=O)[O-])cc2)c(OC)c1 | -6.99%
29 | Cc1cc(C)n2c(SC3CCCCC3NS(=O)(=O)c3ccccc3)nnc2n1 (stereo not shown) | -3.64%
30 | CCC(C(=O)N1CCc2ccccc2C1)n1nc(C)n2c(cc3sccc32)c1=O (stereo not shown) | 1.8%
31 | Cc1ccccc1C(=O)Nc1sc(Cc2ccccc2)c(C)c1C(N)=O | 15.8%
32 | Cc1ccc(-c2nnn3c2nc(NC(C)c2ccccc2)c2ccccc23)cc1 (stereo not shown) | -2.92%
33 | Cc1ccc(C2=C/C(=C/c3ccc4c(c3)OCO4)C(=O)O2)cc1 | -1.6%
34 | Cc1ccccc1N1C(=O)C2CC=CCC2C1=O (stereo not shown) | -3.39%
35 | Cc1c(C(=O)Nc2ccccc2C(F)(F)F)cccc1[N+](=O)[O-] | 1.38%
36 | COc1ccc(N(CC(=O)Nc2ccc(C)c(C)c2)S(=O)(=O)c2ccccc2)cc1 | -4.13%
37 | CS(=O)(=O)c1ccc(-c2nnn(CC(=O)O)n2)cc1 | 3.72%
38 | COc1ccc2cc3cc(C(=O)N4CCCCC4C)oc3nc2c1 (stereo not shown) | -1.54%
39 | Cc1nc2scc(C)n2c(=O)c1S(=O)(=O)NCc1ccc(F)cc1 | -2.41%
40 | COc1cccc(Cn2c(NCC(C)C)nc3c2c(=O)n(C)c(=O)n3C)c1 | -7.08%
41 | Cn1c(=O)c2c(nc(N3CCc4ccccc4C3)n2CCSc2ncccn2)n(C)c1=O | 2.41%
42 | COc1ccc(CN2CCN(S(=O)(=O)c3ccc(Cl)cc3)CC2)cc1 | 3.49%

Row | SMILES | % Inhibition @ 10 uM
43 | COP(=O)(OC)C(Nc1ccc(Cl)cc1)c1ccc(Br)cc1 (stereo not shown) | -2.51%
44 | COc1cc2c(cc1OC)C(C)N(C(=O)c1cc(S(=O)(=O)N3CCCC3)cn1C)CC2 (stereo not shown) | -2.79%
45 | Cc1[nH]c2ccccc2c1CCNC(=O)c1cc(F)c(F)cc1Cl | 0.161%
46 | CCOC(=O)N1CCN(C(=O)c2ccc3c(c2)sc2nc(-c4cccc(OC)c4)cn23)CC1 | 11.8%
47 | COc1cccc(-c2nnc3n2N=C(c2ccc(O)c(O)c2)CS3)c1 | -1.52%
48 | Oc1nc(Cc2ccccc2)nc2c1C1(CCCC1)Cc1ccccc1-2 | -7.19%
49 | O=C1CC(N2CCN(C/C=C/c3ccccc3)CC2)C(=O)N1c1ccccc1 (stereo not shown) | 8.67%
50 | Cc1ccc(C)c(N2C(=O)C3C4C=CC(O4)C3C2=O)c1 (stereo not shown) | -2.56%
51 | CCN(Cc1ccccc1)C(=O)c1cc(-c2ccc(C)c(C)c2)[nH]n1 | -2.18%
52 | CCOC(=O)c1c(-c2ccccc2)csc1NC(=O)Cc1coc2ccc(OC)cc12 | 6.7%
53 | N#Cc1c(NC(=S)NC(=O)c2ccco2)sc2c1CCC2 | 3.32%
54 | Cc1cc(C)nc(NS(=O)(=O)c2ccc(NC(=O)COc3ccc(Cl)cc3Cl)cc2)n1 | 0.188%
55 | CCOC(=O)Nc1nnc(-c2ccc(Br)cc2)s1 | -0.597%
56 | COc1cc2c(cc1OC)C(c1cccc(F)c1)N(C(C)=O)CC2 (stereo not shown) | -2.32%
57 | CC(C)(C)c1ccc(C(=O)NCCc2csc3nc(-c4ccccc4)nn23)cc1 | 10.8%
58 | CCNC(=O)/C(C#N)=C/c1c(Oc2ccc(CC)cc2)nc2c(C)cccn2c1=O | 5.21%
59 | CCSc1nc(N2CCOCC2)c2c(c1C#N)CC(C)(C)OC2 | -2.91%
60 | CC(C)CCOC(=O)NC(C(F)(F)F)C(F)(F)F | -2.44%
61 | CCOc1ccc(OCC)c(C2C(C#N)=C(N)Oc3cc(O)ccc32)c1 (stereo not shown) | -3.49%
